Laboratory results published in PubChem BioAssay (Tox21).
Where “and” joins values, the source holds several entries; their conditions need not be identical. Identical values can stand only once. The shares of active, inactive and inconclusive entries below differ from those in the screen. Potencies of inconclusive entries are doubtful fits and often do not repeat. A structure can be active in one record and inactive in another. Calls of active or inactive are those of the source. Calls come from the whole dose curve; as a rule, active = well fitted activation curve with a large enough effect in the repeat runs; inconclusive = weak or mixed curves; inactive = flat fitted curve, though single readings scatter.

Experiment: A CellTox Green Cytotoxicity Assay to monitor cytotoxicity in HEK293 cells - 32 hour (AID 1224881); note: nearly all actives have a fitted effect of over 40% in size
Settings: CellTox Green fluorescence; series mostly up to 76.8 µM; cytotoxicity increase: at the top concentration
Summary of the method: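 Tox21 screen in HEK293: membrane-impermeant cyanine dye fluoresces on binding dead-cell DNA; compound pinned 5 h post-seeding, plates held at 37 C, signal read repeatedly through 40 h.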
% is set by controls: 0 for no effect and ±100 for the full control effect; potency is the fitted concentration of half-maximal effect; tags give direction and shape of the fitted curve.

| Compound | Potency | cytotoxicity increase |
| --- | --- | --- |
| CCCCCCCCOC(=O)c1ccccc1C(=O)OCCCCCCCC | inconclusive: 21.9 µM [activator, single point] | – |
| N#CCCC(Br)(C#N)CBr (configuration not stated) | active: 54.9 µM | – |
| O=C1C2CC=CCC2C(=O)N1SC(Cl)(Cl)Cl (configuration not stated) | inconclusive: 54.7 µM [activator, single point] and active: 21.5 µM | – |
| CC(C)N(C(=O)SC/C(Cl)=C/Cl)C(C)C | active: 39.2 µM | – |
| N#CCCSCCC#N | – | inactive: -2.05% |
| CCOC(=O)C1(c2ccccc2)CCN(CCc2ccc(N)cc2)CC1 | – | inactive: -1.01% [at 35.3 µM] |
| CCCN(CCC)c1c([N+](=O)[O-])cc(C(F)(F)F)cc1[N+](=O)[O-] | active: 1.55 µM | – |
| Cc1ccc([N+](=O)[O-])[c]2c1[O][Hg]2 | active: 0.674 µM | – |
| CC(=O)[O][Hg][c]1ccccc1 | active: 611 nM and active: 977 nM and active: 213 nM | – |
| C[CH2][Hg][S]c1ccccc1C(=O)O | active: 7.76 µM and active: 4.77 µM | – |
| Cc1ccc(N)c(N)c1 | inactive | – |
| CCCC[P+](CC)(CCCC)CCCC (tested in a mixture with another compound) | inconclusive: 55.4 µM [activator, partial curve, poor fit] | – |

Experiment: A CellTox Green Cytotoxicity Assay to monitor cytotoxicity in HepG2 cells - 0 hour (AID 1224882); note: nearly all actives have a fitted effect of over 35% in size
Settings: CellTox Green fluorescence; series mostly up to 76.8 µM; cytotoxicity: at the top concentration
Summary of the method: (§1)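 Measurements at 0, 8, 16, 24, 32 and 40 h of treatment captured CellTox Green fluorescence in HepG2 cells that had been co-plated with reagent and preincubated 5 h at 37 C/5% CO2.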

| Compound | Potency | cytotoxicity |
| --- | --- | --- |
| CCOP(=S)(OCC)O/N=C(\C#N)c1ccccc1 | inconclusive: 0.0952 µM [activator, single point] | – |
| C[C@]12CC[C@@H]3c4ccc(OC(=O)N(CCCl)CCCl)cc4CC[C@H]3[C@@H]1CC[C@@H]2O | inconclusive: 23.9 µM [activator, partial curve, poor fit] | – |
| Cc1ccc([N+](=O)[O-])[c]2c1[O][Hg]2 | – | inactive: -2.71% [at 35.3 µM] |
| CCc1cccc(C)c1N(C(=O)CCl)C(C)COC (configuration not stated) | inactive | – |

Experiment: A CellTox Green Cytotoxicity Assay to monitor cytotoxicity in HepG2 cells - 32 hour (AID 1224883); note: nearly all actives have a fitted effect of over 50% in size
Settings: CellTox Green fluorescence; series mostly up to 76.8 µM; cytotoxicity increase: at the top concentration
Summary of the method: as §1

| Compound | cytotoxicity increase | Potency |
| --- | --- | --- |
| CC(C)=CCOc1c2occc2cc2ccc(=O)oc12 | inactive: -18.3% [at 35.3 µM] | – |
| CCN(CC)CCc1c[nH]c2ccccc12 | inactive: 6.46% | – |
| N#CCCC(Br)(C#N)CBr (configuration not stated) | – | active: 30.9 µM |
| C[C@H](CN1CCOCC1)C(C(=O)N1CCCC1)(c1ccccc1)c1ccccc1 | – | inconclusive: 75 µM [activator, single point] |
| CCOC(=O)C1(c2ccccc2)CCN(CCc2ccc(N)cc2)CC1 | inactive: 1.72% [at 35.3 µM] | – |
| NNC(=O)c1ccccc1 | inactive: -2.4% | – |
| CC1(C)C(C=C(Cl)Cl)C1C(=O)OC(C#N)c1ccc(F)c(Oc2ccccc2)c1 (configuration not stated) | inactive: -18.1% | – |
| N#Cc1c[nH]cc1-c1cccc2c1OC(F)(F)O2 | – | inconclusive: 15.5 µM [activator, partial curve] |
| C[CH2][Hg][S]c1ccccc1C(=O)O | – | active: 3.09 µM and active: 2.13 µM |
| Cc1ccc(N)c(N)c1 | – | inactive |
| C=Cc1cccc(CCl)c1 | inactive: 0.617% [at 200 µM] | – |
